From the supplement of paper PMC4967469
By IC50 is meant the dose at which the fit gives 50% viability; a fit beyond the top or the lowest dose is shown as a bound at that dose. For AUC the same curve is integrated over the 256-fold range of doses and scaled to a fraction; the more sensitive the line, the further below 1. For some assays here: Any top dose called inferred was calculated from the reported fits. For some assays here: An entry number marks a drug with two screens in the source, which often give different values.

Compound: Cc1cc(N2CCOCC2)cc2[nH]c(-c3c(NC[C@@H](O)c4cccc(Cl)c4)cc[nH]c3=O)nc12 [BMS-536924]
Assay: Viability of human cancer cell lines after 72 h of drug (GDSC screen)
Details: top dose 5.12 µM; screen: GDSC drug entry 62
Description: (§1)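 Human cancer cell lines in 384-well plates, medium with 10% serum, drug for 72 h over a 256-fold dose range (nine 2-fold or five 4-fold steps up to the top dose). Adherent lines were fixed and stained with the nucleic acid dye Syto60, suspension lines read with resazurin; signal relative to control wells, capped at 0 and 100%. One two-parameter sigmoid per drug and line, fitted in a mixed model over all curves with the slope shared within a line.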

Cell Line | AUC | IC50 [µM]
U-698-M (B-cell leukaemia, suspension) | 0.933 | > 5.12
UACC-257 (melanoma, adherent) | 0.812 | 3.63
WSU-NHL (lymphoid neoplasm, suspension) | 0.974 | > 5.12
YT (lymphoid neoplasm, suspension) | 0.992 | > 5.12

Compound: Cc1ccc(-n2nc(C(C)(C)C)cc2NC(=O)Nc2ccc(OCCN3CCOCC3)c3ccccc23)cc1 [BIRB 0796]
Assay: as above
Details: top dose 10 µM; top dose inferred
Description: as §1

Cell Line | AUC | IC50 [µM]
SK-N-FI (neuroblastoma, adherent) | 0.943 | > 10
SK-UT-1 (soft tissue, adherent) | 0.987 | > 10
ST486 (Burkitt lymphoma, suspension) | 0.99 | > 10
SU-DHL-4 (B-cell lymphoma, suspension) | 0.997 | > 10
SU-DHL-6 (B-cell lymphoma, suspension) | 0.995 | > 10
SU-DHL-16 (B-cell lymphoma, suspension) | 0.996 | > 10
SUP-B15 (lymphoblastic leukaemia, suspension) | 0.983 | > 10
SUP-HD1 (Hodgkin lymphoma, suspension) | 0.988 | > 10
SUP-M2 (anaplastic large cell lymphoma, suspension) | 0.994 | > 10
SUP-T1 (T-cell lymphoblastic leukaemia, suspension) | 0.913 | > 10
SW954 (urogenital system, adherent) | 0.927 | > 10
SW962 (urogenital system, adherent) | 0.974 | > 10
TE-6 (oesophagus, adherent) | 0.96 | > 10
TE-15 (oesophagus, suspension) | 0.984 | > 10
U-698-M (B-cell leukaemia, suspension) | 0.966 | > 10
UACC-257 (melanoma, adherent) | 0.957 | > 10
WSU-NHL (lymphoid neoplasm, suspension) | 0.965 | > 10
YT (lymphoid neoplasm, suspension) | 0.981 | > 10

Compound: Cc1cccc(-c2[nH]c(C(C)(C)C)nc2-c2ccc3nccnc3c2)n1 [SB-525334]
Assay: as above
Details: top dose 20 µM; top dose inferred
Description: as §1

Cell Line | AUC | IC50 [µM]
COLO-829 (melanoma, adherent) | 0.917 | > 20
Hs-445 (Hodgkin lymphoma, suspension) | 0.956 | > 20
SK-N-FI (neuroblastoma, adherent) | 0.865 | 17.6
SK-UT-1 (soft tissue, adherent) | 0.989 | > 20
ST486 (Burkitt lymphoma, suspension) | 0.793 | 7.97
SU-DHL-4 (B-cell lymphoma, suspension) | 0.992 | > 20
SU-DHL-6 (B-cell lymphoma, suspension) | 0.984 | > 20
SU-DHL-16 (B-cell lymphoma, suspension) | 0.98 | > 20
SUP-B15 (lymphoblastic leukaemia, suspension) | 0.842 | 13.2
SUP-HD1 (Hodgkin lymphoma, suspension) | 0.932 | > 20
SUP-M2 (anaplastic large cell lymphoma, suspension) | 0.992 | > 20
SUP-T1 (T-cell lymphoblastic leukaemia, suspension) | 0.978 | > 20
SW954 (urogenital system, adherent) | 0.946 | > 20
SW962 (urogenital system, adherent) | 0.927 | > 20
TE-6 (oesophagus, adherent) | 0.951 | > 20
TE-15 (oesophagus, suspension) | 0.885 | > 20
U-698-M (B-cell leukaemia, suspension) | 0.879 | > 20
UACC-257 (melanoma, adherent) | 0.657 | 3.81
WSU-NHL (lymphoid neoplasm, suspension) | 0.973 | > 20
YT (lymphoid neoplasm, suspension) | 0.971 | > 20

Compound: NC(=O)c1ccc(N(C(N)=O)c2c(F)cccc2F)nc1-c1ccc(F)cc1F [VX-702]
Assay: as above
Details: top dose 2 µM; top dose inferred
Description: as §1

Cell Line | AUC | IC50 [µM]
SK-N-FI (neuroblastoma, adherent) | 0.984 | > 2
SK-UT-1 (soft tissue, adherent) | 0.984 | > 2
ST486 (Burkitt lymphoma, suspension) | 0.987 | > 2
SU-DHL-4 (B-cell lymphoma, suspension) | 0.997 | > 2
SU-DHL-6 (B-cell lymphoma, suspension) | 0.995 | > 2
SU-DHL-16 (B-cell lymphoma, suspension) | 0.989 | > 2
SUP-B15 (lymphoblastic leukaemia, suspension) | 0.951 | > 2
SUP-HD1 (Hodgkin lymphoma, suspension) | 0.962 | > 2
SUP-M2 (anaplastic large cell lymphoma, suspension) | 0.994 | > 2
SUP-T1 (T-cell lymphoblastic leukaemia, suspension) | 0.977 | > 2
SW954 (urogenital system, adherent) | 0.983 | > 2
SW962 (urogenital system, adherent) | 0.975 | > 2
TE-6 (oesophagus, adherent) | 0.986 | > 2
TE-15 (oesophagus, suspension) | 0.984 | > 2
U-698-M (B-cell leukaemia, suspension) | 0.983 | > 2
UACC-257 (melanoma, adherent) | 0.979 | > 2
WSU-NHL (lymphoid neoplasm, suspension) | 0.966 | > 2
YT (lymphoid neoplasm, suspension) | 0.955 | > 2

Compound: O=C(c1cc(Cc2n[nH]c(=O)c3ccccc23)ccc1F)N1CCN(C(=O)C2CC2)CC1 [Olaparib]
Assay: as above
Details: top dose 5 µM; screen: GDSC drug entry 1017; top dose inferred
Description: as §1

Cell Line | AUC | IC50 [µM]
SK-N-FI (neuroblastoma, adherent) | 0.988 | > 5
SK-UT-1 (soft tissue, adherent) | 0.966 | > 5
ST486 (Burkitt lymphoma, suspension) | 0.987 | > 5
SU-DHL-4 (B-cell lymphoma, suspension) | 0.997 | > 5
SU-DHL-6 (B-cell lymphoma, suspension) | 0.995 | > 5
SU-DHL-16 (B-cell lymphoma, suspension) | 0.98 | > 5
SUP-B15 (lymphoblastic leukaemia, suspension) | 0.757 | 1.66
SUP-HD1 (Hodgkin lymphoma, suspension) | 0.968 | > 5
SUP-M2 (anaplastic large cell lymphoma, suspension) | 0.893 | 3.48
SUP-T1 (T-cell lymphoblastic leukaemia, suspension) | 0.964 | > 5
SW954 (urogenital system, adherent) | 0.967 | > 5
SW962 (urogenital system, adherent) | 0.979 | > 5
TE-6 (oesophagus, adherent) | 0.965 | > 5
TE-15 (oesophagus, suspension) | 0.985 | > 5
U-698-M (B-cell leukaemia, suspension) | 0.987 | > 5
UACC-257 (melanoma, adherent) | 0.978 | > 5
WSU-NHL (lymphoid neoplasm, suspension) | 0.987 | > 5
YT (lymphoid neoplasm, suspension) | 0.989 | > 5

Same assay, conditions: top dose 10 µM; screen: GDSC drug entry 1495

Cell Line | AUC | IC50 [µM]
COLO-829 (melanoma, adherent) | 0.956 | > 10
Hs-445 (Hodgkin lymphoma, suspension) | 0.957 | > 10
SK-N-FI (neuroblastoma, adherent) | 0.988 | > 10
SK-UT-1 (soft tissue, adherent) | 0.878 | 8.61
ST486 (Burkitt lymphoma, suspension) | 0.966 | > 10
SU-DHL-4 (B-cell lymphoma, suspension) | 0.995 | > 10
SU-DHL-6 (B-cell lymphoma, suspension) | 0.995 | > 10
SU-DHL-16 (B-cell lymphoma, suspension) | 0.982 | > 10
SUP-HD1 (Hodgkin lymphoma, suspension) | 0.958 | > 10
SUP-M2 (anaplastic large cell lymphoma, suspension) | 0.841 | 4.7
SUP-T1 (T-cell lymphoblastic leukaemia, suspension) | 0.969 | > 10
SW954 (urogenital system, adherent) | 0.881 | > 10
SW962 (urogenital system, adherent) | 0.944 | > 10
TE-6 (oesophagus, adherent) | 0.939 | > 10
TE-15 (oesophagus, suspension) | 0.955 | > 10
U-698-M (B-cell leukaemia, suspension) | 0.975 | > 10
UACC-257 (melanoma, adherent) | 0.926 | > 10
WSU-NHL (lymphoid neoplasm, suspension) | 0.968 | > 10
YT (lymphoid neoplasm, suspension) | 0.975 | > 10

Compound: O=C1NC(=O)c2c1c(-c1ccccc1Cl)cc1[nH]c3ccc(O)cc3c21 [Wee1 inhibitor 681640]
Assay: as above
Details: top dose 2 µM; top dose inferred
Description: as §1

Cell Line | AUC | IC50 [µM]
SK-N-FI (neuroblastoma, adherent) | 0.927 | > 2
SK-UT-1 (soft tissue, adherent) | 0.891 | 1.97
ST486 (Burkitt lymphoma, suspension) | 0.957 | > 2
SU-DHL-4 (B-cell lymphoma, suspension) | 0.997 | > 2
SU-DHL-6 (B-cell lymphoma, suspension) | 0.962 | > 2
SU-DHL-16 (B-cell lymphoma, suspension) | 0.987 | > 2
SUP-B15 (lymphoblastic leukaemia, suspension) | 0.982 | > 2
SUP-HD1 (Hodgkin lymphoma, suspension) | 0.96 | > 2
SUP-M2 (anaplastic large cell lymphoma, suspension) | 0.992 | > 2
SUP-T1 (T-cell lymphoblastic leukaemia, suspension) | 0.977 | > 2
SW954 (urogenital system, adherent) | 0.608 | 0.248
SW962 (urogenital system, adherent) | 0.979 | > 2
TE-6 (oesophagus, adherent) | 0.968 | > 2
TE-15 (oesophagus, suspension) | 0.938 | > 2
U-698-M (B-cell leukaemia, suspension) | 0.905 | > 2
UACC-257 (melanoma, adherent) | 0.982 | > 2
WSU-NHL (lymphoid neoplasm, suspension) | 0.979 | > 2
YT (lymphoid neoplasm, suspension) | 0.992 | > 2
